Series [1] can be described thus: Lipophilicity, logD of the compound in 1-octanol and phosphate buffer at pH 7.4 by LC-MS analysis. Particulars: octanol/water.
Series [2] is described as follows: Permeability of the compound in aqueous buffer at pH 6.5 incubated for 2 hrs by PAMPA based HPLC analysis.

Turning to `COc1cc(OC)c(F)c(COc2cnc(Nc3cnc(N4CCC(N5CCN(C)CC5)CC4)nc3)nc2)c1F`, in series [1], the pH-dependent lipophilicity (logD) was found to be 2.7. The same compound returned an apparent permeability coefficient (Papp) at 2 h in series [2] of 18.4 ×10⁻⁶ cm/s.
Consider `COc1cc(OC)c(F)c(COc2cnc(Nc3ccc(N4CCC(N5CCN(C)CC5)CC4)nc3)nc2)c1F`, for which, in series [1], the logD turned out to be 2.7. In addition, the Papp at 2 h in series [2] was 15.1 ×10⁻⁶ cm/s.
For `COc1cc(Nc2ncc(CCc3c(F)c(OC)cc(OC)c3F)cn2)ccc1N1CCN(C2CCN(C)CC2)CC1`, in that order: 2.5 and 3.5 ×10⁻⁶ cm/s.
For `COc1cc(Nc2ncc(OCc3c(F)c(OC)cc(OC)c3F)cn2)cnc1N1CCC(N2CCN(C)CC2)CC1` the same measures were 2.8 and 14.4 ×10⁻⁶ cm/s.
As for `COc1cc(OC)c(F)c(COc2cnc(Nc3ccc(N4CCC(N5CCN(C)CC5)CC4)c(F)c3)nc2)c1F`, in series [1], the logD is 3.6. In series [2], this compound yielded a Papp at 2 h of 26.6 ×10⁻⁶ cm/s.

The values above are taken from ChEMBL document CHEMBL5120772, “Discovery of ASP5878: Synthesis and structure-activity relationships of pyrimidine derivatives as pan-FGFRs inhibitors with improved metabolic stability and suppressed hERG channel inhibitory activity” (Bioorg Med Chem, 2022).
